Results published in PubChem BioAssay AID602293 (National Center for Advancing Translational Sciences (NCATS), 2012).
About 30 (2%) of roughly 1,300 compounds were called active. Inconclusive results (about 10%) are left out. Calls follow the shape of the dose curve; as a rule, active = well fitted inhibition curve with a large enough effect; inconclusive = small, poorly fitted or top-dose-only effect; inactive = flat fitted curve, though single readings scatter. The list shows a part of the results.

assay: qHTS for antagonists of the Thyroid Stimulation Hormone Receptor: Hit Validation in HTRF Activity in a Luteinizing Hormone Receptor Cell Line; details: LHR-expressing cell line, cAMP HTRF, antagonist mode; series mostly up to 58 µM; activity change, negative = inhibition: at the top concentration
In short: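 HEK 293 cells stably expressing LH receptor, in DMEM with 10% FCS and 100 uM RO 20-1724, incubated with compound 30 min at room temperature. cAMP measured by competitive HTRF (anti-cAMP cryptate vs cAMP-d2), excitation 330 nm, emissions 615 and 660 nm.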
% is scaled to controls: 0 for no effect and ±100 for the full control effect.

Activity change, negative = inhibition, inactive:
S=c1[nH]nc(-c2ccccc2)n1C1C=CCCC1 (configuration not stated) -1.23%, C=CCC1(CC=C)CCCN1C(=O)c1cc(COc2ccc(C)nc2)on1 -3.32%, O=C(Nc1ccncc1)c1ccc2c(c1)C(=O)N(C1CCCCC1)C2=O -3.31%, O=C1NC(=S)SC1=C1CCCCCC1 0.716%, CC(C)N(C(=O)Cn1c(-c2cccnc2)ccc(C#N)c1=O)C(C)C 1.41%, COc1ccc(-c2cc(C3CCN(c4cc(Cl)nc(N)n4)CC3)[nH]n2)cc1 -0.959%, CCOc1ccc(CCNC(=O)c2ccc3c(=O)[nH]c4c(C(=O)NC(C)C)sc(=S)n4c3c2)cc1 -0.782%, CC(C)C(NC(=O)Cc1ccccc1)C(=O)N1CCN(c2cccc(Cl)c2)CC1 (configuration not stated) -1.58%, CCCCn1c(NC(=O)c2ccccc2Cl)c(C#N)c2nc3ccccc3nc21 0.264%, COc1cc(/C=C2\SC(=O)N(c3ccc(Cl)cc3)C2=O)cc([N+](=O)[O-])c1O 2.26%, CC(C)CC(=O)NC(NC(=S)Nc1sc2c(c1C#N)CCCC2)C(Cl)(Cl)Cl (configuration not stated) -0.217%, CC[C@@H](C(=O)[C@@H](C)[C@@H](O)[C@H](C)CCc1ccc(C)c(O)c1C(=O)O)[C@H]1O[C@](CC)([C@H]2CC[C@](O)(CC)[C@H](C)O2)C[C@@H]1C -3.86%, CC1(C)C2CCC1(C)C(OC(=O)CCn1ccnc1)C2 (configuration not stated) 1.99%, Cc1cc2nc(SCCOC(=O)Nc3ccc(Cl)cc3)nc(C)c2cc1C 0.935%, COc1ccc(CC(=O)Oc2cc(C)ccc2C)cc1 -0.764%, O=S(=O)(c1cccc(Br)c1)N1CCN(CCc2ccccc2)CC1 -0.571%, COc1cccc(O)c1CN1CCC(C(=O)Nc2ccc(Oc3cccnc3)cc2)CC1 -0.849%, CCSC1=NSC2=NC(=O)/C(=C\c3coc4ccccc4c3=O)C(=N)N12 0.953%, CS(=O)(=O)N(CCc1ccccc1)CC(=O)Nc1ccc(OCc2ccccc2)cc1 -3.93%, CCn1c(=S)sc2c(=O)n(CC(=O)Nc3ccccc3OC)c(C)nc21 0.2%, O=C1OC(CC(=O)N(Cc2nnc(-c3ccc(Cl)cc3)o2)C2CC2)c2ccccc21 (configuration not stated) -0.702%, Cc1cccc2sc(NC(=O)C3CCN(S(=O)(=O)c4cc([N+](=O)[O-])ccc4Cl)CC3)nc12 -2.89%, O=S(=O)(Nc1cccc(-n2cnnn2)c1)c1ccccc1C(F)(F)F 3.27%, COc1cc(C(=O)N/N=C/c2cn(Cc3ccccc3)c3ccccc23)ccc1O -1.49%, Fc1cccc(Cl)c1CNCc1cccnc1 0.337%, CCOc1cc(/C=C2\SC(=NC)N(C)C2=O)c(Br)cc1OC(C)=O -1.47%, O=[N+]([O-])c1cc(Br)c(O)c(/C=N/Nc2nnnn2-c2cccc3ccccc23)c1 -0.719%
